Results published in publication PMC6919601, “Identification of Plasmodium dipeptidyl aminopeptidase allosteric inhibitors by high throughput screening” (PLoS ONE, 2019).
Among all 110,000 compounds or so, about 230 (0.21%) showed an effect of 50% or more. This is one part of the list.

The compounds below were run against DPAP1 (Plasmodium falciparum, UniProt Q8IIJ9) (assay: primary screen, percent inhibition; read by cleavage of a fluorogenic dipeptide substrate; higher = more effect of the substance).
Sequence of DPAP1 (Q8IIJ9 whole entry, looked up): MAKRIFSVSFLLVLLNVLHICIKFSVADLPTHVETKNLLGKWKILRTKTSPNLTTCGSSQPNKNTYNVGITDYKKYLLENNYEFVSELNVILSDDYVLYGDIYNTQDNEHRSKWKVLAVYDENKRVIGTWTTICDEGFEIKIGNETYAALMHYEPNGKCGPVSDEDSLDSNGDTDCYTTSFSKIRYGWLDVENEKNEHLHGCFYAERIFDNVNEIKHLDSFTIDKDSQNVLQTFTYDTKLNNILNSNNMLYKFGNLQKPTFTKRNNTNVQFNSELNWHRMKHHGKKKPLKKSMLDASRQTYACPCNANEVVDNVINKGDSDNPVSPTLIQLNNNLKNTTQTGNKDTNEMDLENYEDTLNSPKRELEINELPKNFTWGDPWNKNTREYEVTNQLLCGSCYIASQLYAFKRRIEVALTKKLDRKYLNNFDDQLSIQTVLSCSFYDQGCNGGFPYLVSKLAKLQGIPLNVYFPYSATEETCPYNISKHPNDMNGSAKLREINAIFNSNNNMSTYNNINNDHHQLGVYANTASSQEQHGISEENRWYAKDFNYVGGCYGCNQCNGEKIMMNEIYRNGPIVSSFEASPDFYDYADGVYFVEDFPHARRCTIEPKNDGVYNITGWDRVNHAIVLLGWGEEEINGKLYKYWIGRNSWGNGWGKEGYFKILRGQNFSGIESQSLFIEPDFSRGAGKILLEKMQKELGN
Parameters: species or system P. falciparum D10 trophozoite lysates; single well
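Note: 30 min substrate incubation versus DMSO and 10 µM JCP410 controls.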

In order of rising “% Inhibition @ 10 uM” value:
1. Cc1nn(Cc2ccc(Cl)c(Cl)c2)c(C)c1NC(=O)c1cc(-c2ccco2)on1  -10%
2. COC1CCCCC1N1CCN(C(=O)c2ccco2)CC1 (stereo not drawn)  -7.34%
3. CNc1nc2ccccc2n2c(C)nnc12  -6.66%
4. O=C(NC(N1CCCC1=O)(C(F)(F)F)C(F)(F)F)c1ccccc1Cl  -5.51%
5. CC(C)(C)c1ccc(C2c3sc(O)nc3SC3C4CC(C5C(=O)N(CC(=O)O)C(=O)C45)C23)cc1 (stereo not drawn)  -5.36%
6. CCOC(=O)C1CCN(C(=O)c2ccc(C#Cc3ccccc3)cc2)CC1  -5.16%
7. COc1ccccc1[C@@H](C)C[C@H](NC(=O)c1ccc(-c2ccccc2)cc1)C(=O)NCC#N  -5.04%
8. CC(C)C[C@H](NC(=O)c1ccc(-c2ccncc2)cc1)C(=O)NCC#N  -4.93%
9. Cc1ccc(C)c(NC(=O)c2csc3ccccc23)c1  -4.89%
10. COC(=O)C1=C(C)N=c2s/c(=C/C=C/c3ccccc3)c(=O)n2C1c1ccccc1 (stereo not drawn)  -4.75%
11. O=S(=O)(c1cccc(SCc2ccccc2)c1)c1cccc(SCc2ccccc2)c1  -3.93%
12. COc1ccc2nc(NC(=O)c3cc(S(=O)(=O)N4CCOCC4)cn3C)sc2c1  -3.42%
13. CCNC(=O)/C(C#N)=C/c1c(Oc2ccc(Cl)c(C)c2)nc2c(C)cccn2c1=O  -3.23%
14. NC1=NC(c2ccco2)n2c(nc3ccccc32)N1 (stereo not drawn)  -3.13%
15. O=C(Cc1ccccc1Br)N(CCCN1CCOCC1)Cc1cccs1  -3.12%
16. O=C1CC(c2nc3cc4ccccc4cc3[nH]2)CN1c1cccc(Cl)c1 (stereo not drawn)  -2.87%
17. O=C(CS(=O)(=O)Cc1ccccc1)NCCc1ccc(F)cc1  -2.83%
18. N#CC1=C(SCC(=O)Nc2ccc(Br)cc2)NC(=O)C(C#N)C12CCCCC2 (stereo not drawn)  -2.47%
19. O=C(NCc1ccco1)c1ccc(COc2cccc3ccccc23)cc1  -2.09%
20. c1ccc2c(CN3CCc4c([nH]c5ccccc45)C3)cccc2c1  -1.98%
21. O=C(CNC12CC3CC(CC(C3)C1)C2)c1ccc(Br)cc1  -1.82%
22. O=C(Cn1cc(C(=O)C2CC2)c2ccccc21)NCC1CCCO1 (stereo not drawn)  -1.82%
23. O=c1c(NC2CCN(Cc3ccccc3)CC2)c(-c2ccccc2)c1=O  -1.4%
24. CCN1C(=O)c2cccc3c(S(=O)(=O)N4CCCC4)ccc1c23  -1.22%
25. CCN(CC)CCNc1nc2nonc2nc1NCCN(CC)CC  -1.19%
26. Cc1cccc(C(CC(=O)N2CCCC2)c2ccccc2)c1O (stereo not drawn)  -1.1%
27. CCCOc1ccc(S(=O)(=O)NCc2ccc(OC)cc2)cc1  -1.06%
28. CSC1=C(C#N)C2(CCCCC2)C2=C(O)CC(C)(C)CC2=N1  -0.712%
29. Cc1ccccc1CNC(=O)CCN1C(=O)c2ccccc2Sc2ncccc21  -0.677%
30. O=C(Nc1ccc(-c2cn3ccsc3n2)cc1)c1ccc(Cl)cc1  -0.366%
31. CCOC(=O)c1c(C)nc(C)c2c(=O)oc3c(OC)cccc3c12  -0.0678%
32. O=c1c2c3c(sc2nc2n1CCC2)CCCC3  -0.0267%
33. COc1ccc(C(=O)/C=C/c2cn(CC(O)CN3CCN(C)CC3)c3ccccc23)cc1 (stereo not drawn)  -0.0235%
34. Cc1ccccc1Cn1cccc1/C=C1/C(=N)N2C=CSC2=NC1=O  0.275%
35. C=CCOc1ccccc1CN1CCc2c([nH]c3ccccc23)C1  0.472%
36. CCNc1ncnc2c1oc1ccccc12  0.627%
37. Nc1ncc(Br)cc1S(=O)(=O)NCCC(=O)NCC1CCCO1 (stereo not drawn)  0.813%
38. O=C(Nc1ccccn1)c1c(O)nc2c(c1O)CCCC2  1.2%
39. Cc1c2cnn(CC(=O)NCC3CCCO3)c(=O)c2c(C)n1Cc1ccccc1 (stereo not drawn)  1.22%
40. O=C(Cc1ccc(Cl)cc1)NCc1cccnc1  1.59%
41. CC(=O)/C=C/c1cn(C(C)=O)c2ccccc12  1.83%
42. COc1ccc(-c2c3c(=O)n(C)c(=O)n(C)c3cn2-c2cc(C)ccc2O)cc1  2.02%
43. CCOC(=O)N1CCC(NC(=O)c2ccc(CS(=O)(=O)c3ccccc3C)o2)CC1  2.14%
44. COc1cc(C2C(C#N)=C(N)Oc3[nH]nc(-c4cccs4)c32)cc(OC)c1O (stereo not drawn)  2.18%
45. CN(c1nnc(NC(=O)NCc2ccc(F)cc2)s1)C1CCCCC1  2.27%
46. COc1cc(C2C(C#N)=C(N)OC3=C2C(=O)CCC3)ccc1OCc1ccccc1Cl (stereo not drawn)  2.36%
47. CCCCNC(=O)CN(c1cccc(Br)c1)S(C)(=O)=O  2.44%
48. COc1ccc(OC)c(C2C(C#N)=C(N)Oc3[nH]nc(-c4cccs4)c32)c1 (stereo not drawn)  2.69%
49. CCn1cc(C2C3=C(O)CC(c4ccccc4)CC3=NC(C)=C2C(=O)Nc2cc(C)ccn2)cn1 (stereo not drawn)  2.7%
50. CN1CCC2(CC1)N=C(c1ccccc1)C(=S)N2  2.97%
51. COc1ccc2c(c1)Cc1sc(NC(=O)C34CC5CC(CC(C5)C3)C4)nc1-2  3.25%
52. CCOc1ccccc1CNC(=O)c1cc2c(Cl)ccc3c2n1CCO3  3.8%
53. CCC1(C#N)c2ccccc2C=CN1C(=O)c1ccccc1 (stereo not drawn)  3.91%
54. Cc1cc(-c2ccc(NC(=O)c3ccccc3C(=O)O)c(C)c2)ccc1NC(=O)c1ccccc1C(=O)O  3.98%
55. Cc1ccc(NC(=O)CN(c2ccc(Cl)cc2C)S(C)(=O)=O)c(C)c1  4.05%
56. Cc1c(CC(=O)NCCc2ccccc2)c(=O)oc2c(C)c(O)ccc12  4.13%
57. O=C(NCc1nc2ccccc2[nH]1)c1nc(-c2ccc(C(F)(F)F)cc2)no1  4.57%
58. CCOc1ccc(OCCSc2nc3ccccc3o2)cc1  4.83%
59. CNC1=C(C)C(=O)c2ccccc2C1=O  5.03%
60. Cc1ccc(S(=O)(=O)CC(=O)c2cc3ccccc3oc2=O)cc1  6.1%
61. COc1cc(C2C(C#N)=C(N)Oc3c2c(C)nn3-c2ccccc2)ccc1O (stereo not drawn)  7.09%
62. COc1cccc(CNC(=O)C2CCN(c3nc4ccccc4n4cnnc34)CC2)c1  10.8%
63. CC1=NC(=S)C(C#N)C(c2ccccc2)=C1 (stereo not drawn)  25.7%
